# Experimental data: PubChem BioAssay (Tox21)
# Where “and” joins values, the source holds several entries; their conditions need not be identical. Equal entries are not always repeated. This list was built around the results that the source calls inconclusive (neither active nor inactive); the mix of calls is not that of the screen. Potencies of inconclusive entries are doubtful fits and often do not repeat. Where a structure was tested more than once in an assay, its records may differ in their call. Calls of active or inactive are those of the source. Unless noted, calls come from the whole dose curve; as a rule, active = well fitted curve in the direction sought with a large enough effect in the repeat runs; inconclusive = weak or mixed curves; inactive = no such curve, though single readings can be large; an effect the other way counts as inactive or inconclusive.
# How the values were obtained:
# [1] = Human pregnane X receptor (PXR) small molecule agonists, qHTS cell viability counter screen (AID 1346977); conditions: PXR-Luc HepG2 viability, CellTiter-Fluor, 24 h; series mostly up to 92.4 µM; note: nearly all actives have a fitted effect of over 50% in size
# Summary of the method: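 Measures live-cell protease fluorescence (CellTiter-Fluor) in PXR-Luc HepG2 cells treated 24hr with compounds at 37C. Cells had 5hr to attach before pin transfer of DMSO solutions.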
# [2] = qHTS assay to identify small molecule agonists of the TGF-beta/Smad signaling pathway - cell viability counter screen (AID 1346829); conditions: SBE-bla HEK293T viability, CellTiter-Glo luminescence, 5 h; series mostly up to 76.8 µM; note: nearly all actives have a fitted effect of over 45% in size
# Summary of the method: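 CellTiter-Glo luminescence readout; SBE-bla HEK 293T cells, overnight plating, compound 5 hr at 37 C/5% CO2, then bla substrate 2 hr RT, then CellTiter-Glo 30 min RT.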
# [3] = qHTS assay to identify small molecule antagonists of the TGF-beta/Smad signaling pathway (AID 1346924; active = well fitted inhibition curve with a large enough effect in the signal ratio in the repeat runs, not every such curve was filed as active; inconclusive = weak or mixed curves; the % refers to the signal ratio); conditions: SBE-bla HEK293T, TGF-beta/Smad reporter, beta-lactamase ratio; activity, negative = inhibition: at 76.8 µM (top of the series) unless noted
# Summary of the method: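 Read-out was FRET-substrate fluorescence (405 nm excitation; 460 and 530 nm emission) after 2 h at room temperature. Before that, cells carrying a Smad-binding-element beta-lactamase reporter in HEK 293T had been stimulated 5 h at 37 C with TGF-beta1 (0.25 ng/mL addition solution) in the presence of test compound.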
# [4] = qHTS assay to identify small molecule agonists of the progesterone receptor (PR) signaling pathway - cell viability counter screen (AID 1346799; calls by dose curve; note: nearly all actives have a fitted effect of over 45% in size); conditions: PR-UAS-bla HEK293T viability, CellTiter-Glo luminescence, 16 h; series mostly up to 92.4 µM
# Summary of the method: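 Counter screen for cytotoxicity: compound-treated PR-UAS-bla HEK293T cells (16 hr, 37C, 5% CO2) were assayed with CellTiter-Glo, luminescence measured after 30 min at room temperature.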
# [5] = qHTS assay to identify small molecule antagonists of the TGF-beta/Smad signaling pathway - cell viability counter screen (AID 1346824); conditions: SBE-bla HEK293T viability, CellTiter-Glo luminescence; series mostly up to 76.8 µM; note: nearly all actives have a fitted effect of over 50% in size
# Summary of the method: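 Cytotoxicity counter-screen run in the same wells as the beta-lactamase Smad reporter read: CellTiter-Glo luminescence after 30 min at room temperature. HEK 293T SBE-bla cells had 5 hr compound exposure at 37 C with TGF-beta1 (0.25 ng/mL stock).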
# [6] = qHTS assay to identify small molecule agonists of the TGF-beta/Smad signaling pathway (AID 1346859; active = well fitted activation curve with a large enough effect in the signal ratio in the repeat runs, not every such curve was filed as active; inconclusive = weak or mixed curves; the % refers to the signal ratio; for activation: % is set by controls: 0 for no effect and ±100 for the full control effect); conditions: SBE-bla HEK293T, TGF-beta/Smad beta-lactamase reporter, 5 h; activation: at 76.8 µM (top of the series)
# Summary of the method: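 Smad-responsive beta-lactamase reporter cells (HEK 293T) received compounds from DMSO stocks after overnight attachment, were incubated 5 hr, then treated 2 hr with FRET substrate before dual-emission fluorescence measurement (405 nm excitation).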
# [7] = molecular target: Thyrotropin-releasing hormone receptor (Homo sapiens) (UniProt P34981); experiment: qHTS assay to identify small molecule antagonists of the thyrotropin-releasing hormone receptor (TRHR) signaling pathway (AID 1346877; active = well fitted inhibition curve with a large enough effect in the repeat runs, not every such curve was filed as active; inconclusive = weak or mixed curves); conditions: TRHR-HEK293, TRH-induced calcium fluorescence, antagonist mode; series mostly up to 51.3 µM
# Summary of the method: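 HEK293/TRHR cells, 18 h, 37 °C; Ca2+ dye 2 h; cpd 5 min RT; TRH 1 nM final; fluorescence read 3 min, 1 s intervals; 15 concs, triplicate.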
# Potency is the fitted concentration of half-maximal effect; tags give direction and shape of the fitted curve or compound fluorescence and quenching.
# Chain of UniProt P34981 (P34981 whole entry, looked up): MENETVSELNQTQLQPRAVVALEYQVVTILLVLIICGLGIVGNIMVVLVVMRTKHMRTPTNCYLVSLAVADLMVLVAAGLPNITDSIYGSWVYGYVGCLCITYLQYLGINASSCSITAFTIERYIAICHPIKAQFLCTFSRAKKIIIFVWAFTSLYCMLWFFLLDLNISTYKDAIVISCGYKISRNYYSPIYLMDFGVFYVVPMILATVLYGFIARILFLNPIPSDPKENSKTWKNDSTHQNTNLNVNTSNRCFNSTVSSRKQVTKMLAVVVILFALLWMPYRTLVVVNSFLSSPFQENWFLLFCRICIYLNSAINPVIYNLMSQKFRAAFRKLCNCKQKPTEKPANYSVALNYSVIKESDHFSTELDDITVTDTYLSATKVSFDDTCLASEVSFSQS
structure (smiles),measurement,setting,value
Nc1ccc(O)c(C(=O)O)c1,Potency,[1],"inconclusive: 50.1 µM [cytotoxic, partial curve, poor fit] and inconclusive: 86.3 µM [cytotoxic, partial curve, poor fit]"
CCCCCCO,Potency,[2],inactive
Nc1ccc2c(c1)C(=O)c1ccccc1C2=O,Potency,[1],"inconclusive: 15.8 µM [cytotoxic, partial curve] and inconclusive: 27.3 µM [cytotoxic, partial curve]"
NCc1cccc(CN)c1,"activity, negative = inhibition",[3],inconclusive: -12.8%
O=C(OCC1CCC2OC2C1)C1CCC2OC2C1 (stereo not given),"activity, negative = inhibition",[3],inconclusive: 12.4%
c1ccc2[nH]ccc2c1,Potency,[4],active: 26.9 µM
same,Potency,[5],"inconclusive: 34.1 µM [cytotoxic, partial curve, poor fit]"
same,Potency,[2],active: 42.9 µM
same,Potency,[3],"inconclusive: 19.2 µM [rising, partial curve]"
CCCCCCCCOC(=O)c1ccc(O)cc1,"activity, negative = inhibition",[3],inconclusive: -25.4% and inconclusive: -28.2%
same,Potency,[1],"inconclusive: 68.4 µM [cytotoxic] and inconclusive: 68.6 µM [cytotoxic, single point]"
C[C@]12C=CC(=O)C=C1CC[C@@H]1[C@@H]2[C@@H](O)C[C@@]2(C)[C@H]1CC[C@]2(O)C(=O)CO,Potency,[4],"inconclusive: 26.9 µM [rising, single point]"
CC1=C(CC(=O)O)c2cc(F)ccc2/C1=C\c1ccc(S(C)=O)cc1 (stereo not given),Potency,[4],inactive
same,Potency,[6],"inconclusive: 34.7 µM [rising, partial curve] and inconclusive: 23.9 µM [rising, partial curve]"
same,Potency,[3],"inconclusive: 21.9 µM [fluorescent, partial curve] and inconclusive: 16.9 µM [fluorescent, partial curve]"
Nc1ccc2c(c1)CN1C(=O)c3ccccc3C1=N2,Potency,[5],"inconclusive: 11.7 µM [cytotoxic, partial curve]"
same,Potency,[2],inconclusive: 11.7 µM [cytotoxic]
same,Potency,[6],"inconclusive: 14.7 µM [rising, partial curve, poor fit]"
same,Potency,[1],"inconclusive: 11.6 µM [rising, partial curve]"
CCCCC(CC)COS(=O)(=O)O (stereo not given),Potency,[5],"inconclusive: 54.9 µM [cytotoxic, single point]"
same,"activity, negative = inhibition",[3],inconclusive: -36.6%
CCc1ccc(O)cc1,Potency,[4],"inconclusive: 0.614 µM [cytotoxic, single point]"
same,Potency,[6],inactive
CN(C)c1cccc(O)c1,activation,[6],inconclusive: 29.3%
same,"activity, negative = inhibition",[3],inconclusive: -12%
Oc1ccc(O)cc1,Potency,[1],"inconclusive: 60.8 µM [cytotoxic, single point]"
O=P(O)(O)O,Potency,[4],"inconclusive: 0.611 µM [cytotoxic, single point]"
same,Potency,[5],"inconclusive: 22.2 µM [rising, single point]"
Cc1c(C)c2c(c(C)c1O)CCC(C)(COc1ccc(CC3SC(=O)NC3=O)cc1)O2 (stereo not given),Potency,[4],"inconclusive: 13.7 µM [rising, full curve] and inconclusive: 13.3 µM [rising, full curve]"
same,Potency,[6],"inconclusive: 6.92 µM [rising, full curve]"
same,Potency,[3],"inconclusive: 4.36 µM [fluorescent, partial curve, poor fit]"
same,"activity, negative = inhibition",[3],inconclusive: 1.77% [at 35.3 µM]
Cc1ccc(N)c(S(=O)(=O)O)c1,Potency,[5],"inconclusive: 2.22 µM [cytotoxic, single point]"
same,"activity, negative = inhibition",[3],inconclusive: -3.34%
same,Potency,[1],inactive
O=C(Nc1ccc(Cl)cc1)Nc1ccc(Cl)c(Cl)c1,Potency,[5],"inconclusive: 16.9 µM [cytotoxic, partial curve]"
same,Potency,[2],"inconclusive: 5.49 µM [cytotoxic, full curve, poor fit]"
same,Potency,[6],inactive
same,"activity, negative = inhibition",[3],inconclusive: -38.3% and inconclusive: -23.9%
same,Potency,[1],active: 7.08 µM and active: 12.2 µM and active: 13.3 µM
CCCSS/C(CCO)=C(\C)N(C=O)Cc1cnc(C)nc1N,Potency,[4],inactive
same,Potency,[1],"inconclusive: 33.5 µM [cytotoxic, single point]"
Cc1cc(Cc2ccc(N)c(C)c2)ccc1N,Potency,[4],inconclusive: 68.6 µM
O=C1C=CC(=O)N1c1ccc(Cc2ccc(N3C(=O)C=CC3=O)cc2)cc1,Potency,[2],active: 61.6 µM
same,Potency,[7],"inconclusive: 38 µM [inhibitor, partial curve, poor fit]"
same,"activity, negative = inhibition",[3],inconclusive: -9.85%
CN(C)[C@@H]1C(=O)C(C(N)=O)=C(O)[C@@]2(O)C(=O)C3=C(O)c4c(O)ccc(Cl)c4[C@@H](O)[C@H]3C[C@@H]12,Potency,[6],"inconclusive: 21.3 µM [rising, partial curve, poor fit]"
same,Potency,[3],inconclusive: 26.8 µM
same,Potency,[1],inactive
CCC(C)(C)c1ccc(CC(C)CN2C[C@@H](C)O[C@@H](C)C2)cc1 (stereo not given in full),Potency,[4],"inconclusive: 15 µM [cytotoxic, partial curve, poor fit]"
CCC(C)(C)c1cc(O)c(C(C)(C)CC)cc1O,Potency,[4],"inconclusive: 77 µM [rising, single point]"
same,Potency,[6],"inconclusive: 54.9 µM [rising, single point]"
same,Potency,[7],"inconclusive: 6.75 µM [inhibitor, full curve]"
CC(C)Oc1ccc2c(=O)c(-c3ccccc3)coc2c1,Potency,[4],"inconclusive: 13.3 µM [rising, full curve] and inconclusive: 6.68 µM [rising, full curve]"
same,Potency,[1],inactive
COc1ccc(COC(C)=O)cc1,Potency,[4],"inconclusive: 0.0986 µM [cytotoxic, full curve, poor fit]"
O=C1CCCCCN1,Potency,[2],"inconclusive: 55.1 µM [cytotoxic, single point]"
same,Potency,[6],"inconclusive: 61.8 µM [rising, single point]"
same,"activity, negative = inhibition",[3],inconclusive: -15.9%
same,Potency,[1],active: 7.08 µM
CSc1c(Cl)c(Cl)c(Cl)c(Cl)c1Cl,Potency,[4],"inconclusive: 60.8 µM [cytotoxic, partial curve, poor fit]"
same,Potency,[5],"inconclusive: 0.487 µM [cytotoxic, single point]"
same,"activity, negative = inhibition",[3],inconclusive: 0.686%
ClC1=C(Cl)C(Cl)(Cl)C(Cl)=C1Cl,Potency,[4],inactive
CC(C)CC(=O)CC(C)C,Potency,[4],inactive
CC(=O)O[C@]1(C(C)=O)CC[C@H]2[C@@H]3C=C(Cl)C4=CC(=O)[C@@H]5C[C@@H]5[C@]4(C)[C@H]3CC[C@@]21C,Potency,[4],"inconclusive: 34.3 µM [rising, partial curve, poor fit] and inconclusive: 15.4 µM [rising, partial curve, poor fit] and inconclusive: 23.7 µM [rising, partial curve, poor fit]"
same,Potency,[3],"inconclusive: 21.9 µM [fluorescent] and inconclusive: 24.5 µM [fluorescent, partial curve] and inconclusive: 23.9 µM [fluorescent]"
same,Potency,[1],"inconclusive: 70.8 µM [cytotoxic, single point] and inconclusive: 68.6 µM [cytotoxic, single point]"
COc1ccc(-c2ccc3cc(C(=O)O)ccc3c2)cc1C12CC3CC(CC(C3)C1)C2,Potency,[2],"inconclusive: 9.52 µM [cytotoxic, full curve]"
COc1ccc2cc([C@H](C)C(=O)O)ccc2c1,Potency,[6],"inconclusive: 54.9 µM [rising, partial curve, poor fit]"
O=C(O)c1ccc2c(c1)C(=O)OC2=O,Potency,[4],"inconclusive: 27.8 µM [cytotoxic, single point]"
Cc1ccc(O)c2ncccc12,Potency,[4],"inconclusive: 10.6 µM [cytotoxic, partial curve, poor fit]"
same,"activity, negative = inhibition",[3],inconclusive: -8.28% [at 35.3 µM]
Cc1ccc(O)c(C(C)(C)C)c1,Potency,[5],inactive
same,Potency,[6],"inconclusive: 54.9 µM [rising, single point]"
